Experimental data published in PubChem BioAssay AID624170 (National Center for Advancing Translational Sciences (NCATS), 2012).
Values joined by “and” are separate entries in the source; they are usually repeats but may differ in a detail not shown here. Identical values can stand only once. In all, about 410,000 compounds went through this assay and about 850 (0.21%) were called active. The shares of active, inactive and inconclusive entries below differ from those in the screen. Calls come from the whole dose curve; as a rule, active = well fitted inhibition curve with a large enough effect; inconclusive = small, poorly fitted or top-dose-only effect, or another doubt; inactive = no such curve, though single readings can be large or run the other way. Potencies of inconclusive entries are doubtful fits and often do not repeat.
Potency is the fitted concentration of half-maximal effect; tags give direction and shape of the fitted curve.

What follows are molecules tested against Glutaminase kidney isoform, mitochondrial (Homo sapiens) (UniProt O94925) (assay: qHTS for Inhibitors of Glutaminase (GLS)). Details: GLS enzymatic activity, qHTS titration; series mostly up to 45.5 µM.
Sequence of UniProt O94925 (O94925 whole entry, looked up, canonical isoform): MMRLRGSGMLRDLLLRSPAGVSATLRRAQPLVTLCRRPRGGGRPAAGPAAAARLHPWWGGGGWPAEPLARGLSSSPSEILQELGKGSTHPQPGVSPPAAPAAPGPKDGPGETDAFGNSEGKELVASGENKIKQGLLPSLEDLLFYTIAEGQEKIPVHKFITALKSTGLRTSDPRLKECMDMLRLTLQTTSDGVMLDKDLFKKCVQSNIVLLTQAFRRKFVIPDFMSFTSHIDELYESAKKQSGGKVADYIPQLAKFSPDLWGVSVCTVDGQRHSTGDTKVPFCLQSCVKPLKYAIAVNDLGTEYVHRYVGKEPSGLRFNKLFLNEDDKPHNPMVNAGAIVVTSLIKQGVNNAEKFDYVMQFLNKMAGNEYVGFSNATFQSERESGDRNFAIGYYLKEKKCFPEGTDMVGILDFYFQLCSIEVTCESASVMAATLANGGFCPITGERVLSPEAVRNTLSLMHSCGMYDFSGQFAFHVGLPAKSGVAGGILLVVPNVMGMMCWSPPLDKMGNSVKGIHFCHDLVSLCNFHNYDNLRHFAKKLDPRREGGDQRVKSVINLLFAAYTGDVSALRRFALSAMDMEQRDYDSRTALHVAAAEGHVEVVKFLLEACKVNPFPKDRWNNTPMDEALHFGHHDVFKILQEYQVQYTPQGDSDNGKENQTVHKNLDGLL
In short: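 Compounds were pin-transferred onto hKGA, after which L-glutamine (1 mM solution) and a detection mix of glutamate oxidase, HRP and Amplex Red were added. Initial and 30 min RT fluorescence reads were collected.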
In the case of `COc1ccccc1NS(=O)(=O)c1ccc(N/N=C/c2ccccc2OCC(=O)O)c([N+](=O)[O-])c1`, the Potency is reported as “inactive”. With `COc1ccccc1C(=O)NCCC(=O)NC1CCCCC1C` (stereo not drawn) the Potency was “inactive”. `COc1ccc(C2CC(c3cccs3)=NN2C(=O)CSc2nc(=O)n3cc(C)ccc3n2)cc1` (stereo not drawn) was tested, and the Potency was inconclusive: 35.5 µM [inhibitor, single point]. For `COC(=O)c1c(NC(=O)/C=C/C(=O)O)sc(C)c1-c1ccc(C(C)C)cc1`, the Potency was “inactive”. In the case of `CN(C)c1ccc(/C=C/C(=O)c2ccccc2O)cc1`, the Potency is reported as “inactive”. `Cc1c(CC(=O)NCC(=O)O)c(=O)oc2cc3oc4c(c3cc12)CCCC4` was tested, and the Potency was inconclusive: 10 µM [inhibitor, partial curve, poor fit]. In the case of `CC(C)Oc1ccc(Cn2c(-c3ccco3)n[nH]c2=S)cc1`, the Potency is reported as inconclusive: 7.08 µM [inhibitor, full curve]. With `Cc1cc(C)n2ncc(C(=O)NCc3ccccc3)c2n1` the Potency was inconclusive: 11.2 µM [inhibitor, partial curve, poor fit]. With `Cc1ccc(S(=O)(=O)N2CC=C(C(=O)NC3CCCC3)CC2)cc1` the Potency was “inactive”. For `CC1=CC(C)(C)Nc2ccc(OC(=O)C(C)N3C(=O)c4ccccc4C3=O)cc21` (stereo not drawn), the Potency was inconclusive: 35.5 µM [inhibitor, single point]. In the case of `CC1(C)C(C=C(Cl)Cl)C1C(=O)Nc1ccc([N+](=O)[O-])cc1` (stereo not drawn), the Potency is reported as “inactive”. In the case of `O=C(O)c1ccc2c3c(cccc13)C(=O)N(c1ccccc1)C2=O`, the Potency is reported as inconclusive: 31.6 µM [inhibitor, single point]. For `Cc1nc2ccccn2c(=O)c1NC(=O)c1cccc2ccccc12`, the Potency was inconclusive: 3.55 µM [inhibitor, partial curve, poor fit]. `Cc1ccc2nc(NC(=O)c3ccco3)sc2c1` was tested, and the Potency was “inactive”. For `O=C1ON=C(c2ccc(Cl)cc2)/C1=C/c1ccc(O)cc1`, the Potency was inconclusive: 3.98 µM [inhibitor, full curve]. `O=S(=O)(/N=C/c1c(O)ccc2ccccc12)c1ccccc1` was tested, and the Potency was inconclusive: 35.5 µM [inhibitor, single point]. In the case of `CC1(C)C2([N+](=O)[O-])CN3CC1([N+](=O)[O-])CN(C2)C3c1ccc(O)c(O)c1` (stereo not drawn), the Potency is reported as inconclusive: 1.26 µM [inhibitor, full curve, poor fit]. For `CCCCn1c(CCn2nc(C)c(Br)c2C)n[nH]c1=S`, the Potency was inconclusive: 7.94 µM [inhibitor, partial curve]. In the case of `Cc1cccc(NC(=S)N2CCC(C(=O)c3ccc(F)cc3)CC2)c1`, the Potency is reported as inconclusive: 35.5 µM [inhibitor, single point]. For `CC(=O)Nc1ccc(-c2csc(Nc3cc(C)ccn3)n2)cc1`, the Potency was inconclusive: 35.5 µM [inhibitor, partial curve, poor fit]. `N#CC1=C(N)Oc2c(ccc3cccnc23)C1c1ccccc1` (stereo not drawn) was tested, and the Potency was “inactive”. In the case of `CCCCCNC(=O)c1ccc2c(=O)n(CC3CCCO3)c(=O)[nH]c2c1` (stereo not drawn), the Potency is reported as inconclusive: 22.4 µM [inhibitor, single point]. For `COc1ccc(CN2CCN(C)CC2)cc1OCc1ccccc1`, the Potency was “inactive”. `O=C(NC1CCCc2ccccc21)c1cc(S(=O)(=O)N2CCOCC2)ccc1F` (stereo not drawn) was tested, and the Potency was “inactive”. With `Brc1ccsc1/C=N/Nc1ccccc1` the Potency was inconclusive: 11.2 µM [inhibitor, partial curve, poor fit]. In the case of `COc1cc(C2c3c([nH]c(=O)[nH]c3=O)Nc3ccc4ccccc4c32)cc(OC)c1OC` (stereo not drawn), the Potency is reported as inconclusive: 22.4 µM [inhibitor, single point]. `CCOC(=O)CSc1nc(-c2ccccc2)ns1` was tested, and the Potency was inconclusive: 35.5 µM [inhibitor, partial curve, poor fit]. With `CCOc1cc(/C=N\NC(=O)c2c(C)nc3ccccn23)ccc1O` the Potency was inconclusive: 28.2 µM [inhibitor, single point]. In the case of `Cc1cc(C)cc(N(CC(=O)Nc2c(C)cc(C)cc2C)S(=O)(=O)c2c(C)nn(C)c2C)c1`, the Potency is reported as “inactive”. With `O=C(N/N=C/c1cc(Cl)c(O)c(Cl)c1)c1cc2c(ccc3ccccc32)o1` the Potency was inconclusive: 35.5 µM [inhibitor, single point]. `O=C(O)c1ccc2c(c1)C(=O)N(c1cccc3ccccc13)C2=O` was tested, and the Potency was inconclusive: 20 µM [inhibitor, single point]. With `Cc1ccc(S(=O)(=O)N(CC(=O)Nc2cccnc2)c2cc(Cl)ccc2C)cc1` the Potency was “inactive”. For `CCOc1ccc(NC(=O)CCS(=O)(=O)c2ccc(Br)cc2)cc1`, the Potency was inconclusive: 35.5 µM [inhibitor, single point] and inconclusive: 17.8 µM [inhibitor, single point]. `Cc1c(C(=O)NN)[nH]c2ccc([N+](=O)[O-])cc12` was tested, and the Potency was inconclusive: 25.1 µM [inhibitor, single point]. With `COc1cc(OC)c2nc(C)c3c(c2c1)N(c1ccc(O)cc1)CC3` the Potency was inconclusive: 15.8 µM [inhibitor, partial curve, poor fit]. In the case of `COc1cccc(C(=O)N2N=C(c3cccc(OC)c3)CC2(O)C(F)(F)F)c1` (stereo not drawn), the Potency is reported as “inactive”. `CN(CC(=O)Nc1cccc(F)c1)C(=O)CCNC(=O)c1ccc(Br)cc1` was tested, and the Potency was “inactive”. For `COc1c(-c2ccc(O)c(O)c2)oc2cc(O)cc(O)c2c1=O`, the Potency was inconclusive: 35.5 µM [inhibitor, single point]. With `O=C(Nc1ccc(Cl)c([N+](=O)[O-])c1)ONC1=NCCCCC1` the Potency was inconclusive: 14.1 µM [inhibitor, partial curve]. `CC(=O)NC1C(=O)N(CCN2CCOCC2)c2ccc(Cl)cc21` (stereo not drawn) was tested, and the Potency was inconclusive: 11.2 µM [inhibitor, single point]. In the case of `CCOC(=O)c1nn(-c2ccccc2)c(=O)c2c(N)scc12`, the Potency is reported as inconclusive: 25.1 µM [inhibitor, single point]. `Cc1ccc(NC(=O)CN(C)C(=O)c2cccc(-n3cccc3)c2)cc1` was tested, and the Potency was inconclusive: 15.8 µM [inhibitor, single point]. `CCOC(=O)c1c(NC(=O)CSc2nnc(C)s2)sc2c1CCN(C)C2` was tested, and the Potency was inconclusive: 17.8 µM [inhibitor, single point].
